Where “and” joins values, the source holds several entries; their conditions need not be identical. Identical values can stand only once. Whole data set: some 5,300 compounds, median “PER2::LUC luminescence relative to vehicle control” near 0.96, cut for the highest 2% near 1.3. Some of the results follow.
System: mPer2Luc MEF
Assay: PER2::LUC luminescence relative to vehicle control (fold of vehicle); higher = higher PER2::LUC reporter signal
Conditions: 10 µM
Summary of the method: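 In 384-well plates, ~3000 mPer2Luc reporter mouse embryonic fibroblasts per well were cultured in DMEM with 10% FBS at 37 °C and 5% CO2 for 48 h before compounds from commercial libraries were added at 10 μM. ONE-Glo luciferase readings were taken 24 h and 30 h after treatment. Each value is PER2::LUC luminescence given as fold of vehicle control.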

| SMILES | PER2::LUC luminescence (time after treatment 24 h) | PER2::LUC luminescence (time after treatment 30 h) |
| --- | --- | --- |
| Cc1ccc(C(=O)Nc2ccc(Oc3cc4cnn(C)c4cc3-c3cn[nH]c3)c(F)c2)c(=O)n1-c1ccc(F)cc1 | 0.701 | 0.628 |
| N#CCNC(=O)c1ccc(-c2ccnc(Nc3ccc(N4CCOCC4)cc3)n2)cc1 | 0.18 | 0.271 |
| COc1ccc(-c2coc3c(O)c(O)c(OC)cc3c2=O)cc1 | 1.31 | 1.23 |
| OCc1c[nH]c2ccccc12 | 0.842 | 0.816 |
| Cc1cnc(-c2cc(N3CCN(C(=O)CCS(C)(=O)=O)CC3)ncc2Cl)c(C)c1 | 1.29 | 1.07 |
| CC(C)(CO)c1cc2cc(NC(=O)C3(c4ccc5c(c4)OC(F)(F)O5)CC3)c(F)cc2n1C[C@@H](O)CO | 0.859 | 0.842 |
| CN1C(=O)CC[C@H]1c1cccnc1 | 1.12 and 0.907 | 0.85 and 0.96 |
| Cc1c(CN2CCN(C(=O)[C@H](C)O)CC2)sc2c(N3CCOCC3)nc(-c3cnc(N)nc3)nc12 | 0.329 | 0.328 |
| CN1CCN(CCCCN2C(=O)CN(/N=C/c3ccc(-c4ccc(Cl)cc4)o3)C2=O)CC1 | 0.781 | 0.684 |
| CN1CCc2c(c3ccccc3n2Cc2ccc(C(=O)NO)cc2)C1 | 0.91 and 0.777 and 0.742 | 0.939 and 0.672 and 0.684 |
| CC[C@@H]1C(=O)OC[C@@H]1Cc1cncn1C |  | 0.96 and 0.912 and 0.796 |
| COc1ccccc1Oc1c(NS(=O)(=O)c2ccc(C)cn2)nc(-c2ccncc2)nc1OC | 0.901 | 1.02 |
| CCn1c(=O)[nH]c2cc(Cl)c(Cl)cc21 | 0.951 | 0.812 |
| CNc1cc(-c2cccc(Cl)c2Cl)nc(N)n1 | 0.923 | 1.05 |
| C[C@@H](O[C@H]1OCCN(Cc2nn(P(=O)(O)O)c(=O)[nH]2)[C@H]1c1ccc(F)cc1)c1cc(C(F)(F)F)cc(C(F)(F)F)c1 | 0.47 | 0.861 |
| CCC(C)(Oc1ccc(C2(c3ccc(OC(C)(CC)C(=O)O)cc3)CCCCC2)cc1)C(=O)O (configuration not stated) | 1.34 | 1.06 |
| COc1cc2nccc(Oc3ccc(NC(=O)NC4CC4)c(Cl)c3)c2cc1C(N)=O | 0.795 and 0.608 | 0.771 and 0.637 |
| c1nc2c(NC3CCCCC3)nc(Nc3ccc(N4CCOCC4)cc3)nc2[nH]1 | 0.991 | 0.895 |
| CCN(CC)CC(=O)Nc1c(C)cccc1C | 1.05 and 0.941 and 0.828 | 1.02 and 1.03 and 0.851 |
| CC(C)c1noc(C2CCN(c3ncnc(Nc4ccc(S(C)(=O)=O)cc4F)c3[N+](=O)[O-])CC2)n1 | 0.972 | 0.789 |
| O=C(O)[C@@H]1C[C@H](C(=O)O)N1 | 1.05 | 1.17 |

| SMILES | PER2::LUC luminescence (time after treatment 24 h) | PER2::LUC luminescence (time after treatment 30 h) |
| --- | --- | --- |
| CC(=O)OCC(=O)[C@@]12OC(C)(C)O[C@@H]1C[C@H]1[C@@H]3C[C@H](F)C4=CC(=O)C=C[C@]4(C)[C@@]3(F)[C@@H](O)C[C@@]12C | 0.854 | 1.05 |
| c1ccc2c(CC3=NCCN3)cccc2c1 | 1.01 | 1.01 |
| NC(N)=NC(=O)c1nc(Cl)c(N)nc1N | 0.989 | 1.05 |
| O=c1oc2c(O)c(O)cc3c(=O)oc4c(O)c(O)cc1c4c23 | 1.18 | 1.25 |
| NC(=O)NCCC[C@H](N)C(=O)O | 0.977 | 0.923 |
| C[C@@H]1O[C@@H](O[C@H]2[C@H](Oc3cc(O)c4c(=O)c(O)c(-c5ccc(O)cc5)oc4c3)O[C@H](CO)[C@@H](O)[C@@H]2O)[C@H](O)[C@H](O)[C@H]1O | 1.24 | 0.968 |
| CSC(=N)NCCC[C@H](N)C(=O)O | 0.874 | 0.765 |
| S=C(S)N1CCCC1 | 1.27 | 1.02 |
| Cc1o[nH]c(=O)c1CCC(N)C(=O)O (configuration not stated) | 0.959 | 0.829 |
| CC(C)COc1ccc(CNC(=O)N(Cc2ccc(F)cc2)C2CCN(C)CC2)cc1 | 0.639 | 0.607 |
| C=CC[C@@H]1[C@H](O)CC[C@@]2(C)[C@H]1CC[C@@H]1[C@@H]2CC[C@]2(C)[C@@H]([C@H](C)CCCC(C)C)CC[C@@H]12 | 0.994 | 0.987 |
| CC(=O)CC(c1ccccc1)c1c(O)c2ccccc2oc1=O (configuration not stated) | 1.23 | 0.93 |
| CN(c1ccccc1CNc1nc(Nc2ccc3c(c2)CC(=O)N3)ncc1C(F)(F)F)S(C)(=O)=O | 0.377 | 0.28 |
| CCO/N=C1\c2ccccc2-c2nc(C#N)c(C#N)nc21 | 0.664 | 0.619 |
| NS(=O)(=O)c1cc2c(cc1Cl)NC(C1CC3C=CC1C3)NS2(=O)=O (configuration not stated) | 1.03 | 0.932 |
| O=C1NS(=O)(=O)c2ccccc21 | 0.864 | 1.04 |
| CC/C(=C(\c1ccc(O)cc1)c1ccc(OCCNC)cc1)c1ccccc1 | 0.74 | 0.756 |
| Oc1ccc([C@H]2Oc3cc(O)cc(O)c3C[C@H]2O)cc1 | 0.958 | 0.941 |
| COc1cc(-c2oc3cc(O)cc(O)c3c(=O)c2O)ccc1O | 1.02 | 1.23 |
| Cc1cc(Cn2nnc3c(-c4ccco4)nc(N)nc32)ccc1N | 0.986 | 0.986 |
| Cc1cc(OCc2nc(-c3ccccc3Cl)cs2)ccc1CCC(=O)O | 1.11 | 1.28 |

| SMILES | PER2::LUC luminescence (time after treatment 24 h) | PER2::LUC luminescence (time after treatment 30 h) |
| --- | --- | --- |
| O=C(Nc1cccc(C(=O)Nc2ccc(S(=O)(=O)O)c3cc(S(=O)(=O)O)cc(S(=O)(=O)O)c23)c1)Nc1cccc(C(=O)Nc2ccc(S(=O)(=O)O)c3cc(S(=O)(=O)O)cc(S(=O)(=O)O)c23)c1 | 1.01 | 0.936 |
| COc1cc2nc(C3CC3)nc(N3CCN(c4ccccc4OC)CC3)c2cc1OC | 0.63 | 0.796 |
| CNC(=O)c1cc(Oc2ccc(NC(=O)Nc3ccc(Cl)c(C(F)(F)F)c3)cc2)ccn1 | 0.556 and 0.486 | 0.816 and 0.513 |
| CNC(=O)c1ccccc1Nc1cc(Nc2ccc(N3CCOCC3)cc2OC)ncc1C(F)(F)F | 0.532 | 0.485 |
| CN1C(CCl)Nc2cc(Cl)c(S(N)(=O)=O)cc2S1(=O)=O (configuration not stated) | 0.976 | 0.898 |
| C=CC1=C(C(=O)O)N2C(=O)[C@@H](NC(=O)/C(=N\O)c3csc(N)n3)[C@H]2SC1 | 1.08 | 0.951 |
| Nc1ncnc2c1nc(Br)n2C1OC2COP(=O)(O)O[C@@H]2C1O (some centres not stated) | 0.753 | 0.913 |
| OCc1ccccc1O[C@@H]1O[C@H](CO)[C@@H](O)[C@H](O)[C@H]1O | 0.81 and 1.04 | 1.16 and 0.919 |
| C[n+]1cc(NC(=O)c2cccc(C(=O)Nc3cc4ccccc4[n+](C)c3)n2)cc2ccccc21 | 0.697 | 0.604 |
| CCCCCCCCCCCCC/C=C/[C@@H](O)[C@H](CO)NC(=O)CCCCC | 1.1 | 1.04 |
| O=C1NC(O)CCN1[C@@H]1O[C@H](CO)[C@@H](O)[C@H]1O (some centres not stated) | 1.21 | 1.19 |
| Ic1ccc(N2CCN(Cc3c[nH]c4ncccc34)CC2)cc1 | 1.29 and 0.924 | 1.01 and 0.827 |
| C=C1CC[C@@H]2[C@](C)(CO)[C@H](O)CC[C@@]2(C)[C@@H]1C/C=C1/C(=O)OC[C@H]1O | 0.83 | 0.72 |
| CC(=O)NS(=O)(=O)c1ccc(N)cc1 | 0.956 and 0.97 | 0.953 and 0.925 |
| CCOC(=O)c1ccc(-n2cc(Cc3cnc(OCC)nc3)c(=O)nc2SCc2ccc(F)cc2)cc1 | 1.08 | 1.08 |
| Cc1cn([C@H]2C=C[C@@H](CO)O2)c(=O)[nH]c1=O | 0.963 | 0.912 |
| Nc1nc(Cl)nc2c1ncn2[C@@H]1O[C@H](CO)[C@@H](O)[C@H]1O | 1.02 | 1.07 |
| O=c1c(O[C@@H]2O[C@H](CO)[C@H](O)[C@H](O)[C@H]2O)c(-c2ccc(O)c(O)c2)oc2cc(O)cc(O)c12 | 0.946 | 0.735 |
| Cc1c(-c2cnccn2)ssc1=S | 0.829 | 0.988 |
| NO | 1.02 | 0.884 |
| C(=C\c1ccccc1)/CN1CCN(C(c2ccccc2)c2ccccc2)CC1 | 0.857 | 0.838 |

| SMILES | PER2::LUC luminescence (time after treatment 24 h) | PER2::LUC luminescence (time after treatment 30 h) |
| --- | --- | --- |
| COc1cccc(Nc2ncnn3ccc(CN4CC[C@@H](N)[C@H](O)C4)c23)c1 | 0.391 | 0.45 |
| CCN(CC)CCNC(C(=O)OCCC(C)C)c1ccccc1 (configuration not stated) | 0.814 and 0.816 | 1.07 and 0.796 |
| C[C@@H]1C[C@H]2[C@@H]3CCC4=CC(=O)C=C[C@]4(C)[C@@]3(F)[C@@H](O)C[C@]2(C)[C@@]1(O)C(=O)COP(=O)(O)O | 0.739 | 1.02 |
| Cc1cccc(CC(=O)N2CCc3c2ccc(-c2cn(C)c4ncnc(N)c24)c3F)n1 | 1.24 | 1.07 |
| Nc1cc(Cl)c(NC2=NCCN2)c(Cl)c1 | 1.02 | 1.08 |
| CC(C)OC(=O)OCOP(=O)(CO[C@H](C)Cn1cnc2c(N)ncnc21)OCOC(=O)OC(C)C | 1.17 | 1.05 |
| CC(C)CCNC(=O)c1ccc2c(c1)nc(Nc1n[nH]c3ccc(-c4ccccc4OC(F)(F)F)cc13)n2C1CCC(O)CC1 (configuration not stated) | 0.526 | 0.553 |
| Cc1ccc(NC(=O)c2cccc(C(C)(C)C#N)c2)cc1Nc1ccc2ncn(C)c(=O)c2c1 | 0.564 | 0.556 |
| OCCN(CCO)c1nc(N2CCCCC2)c2nc(N(CCO)CCO)nc(N3CCCCC3)c2n1 | 0.969 and 0.694 | 0.924 and 1.03 |
| CC(C)(C)OC(=O)N1CCC(OCc2nc(-c3ccncc3)no2)CC1 | 0.986 | 0.843 |
| CC[C@H](CO)Nc1nc(NCc2ccccc2)c2ncn(C(C)C)c2n1 | 0.505 | 0.942 |
| Cc1nc(C(=O)N2CCC[C@H]2Cc2nnc(-c3ccccc3)o2)c(-c2ccccc2F)s1 | 1.06 | 0.881 |
| CN(c1nccc(=O)[nH]1)C1CCN(c2nc3ccccc3n2Cc2ccc(F)cc2)CC1 | 1.07 | 1.45 |
| CCS(=O)(=O)N1CCC[C@@H]2CN3CCc4cc(OC)ccc4[C@@H]3C[C@@H]21 | 0.924 | 0.903 |
| O=C(O)c1ccccc1C(=O)Nc1ccc(S(=O)(=O)Nc2nccs2)cc1 | 0.993 | 0.892 |
| C[N+](C)(C)CC(=O)O | 1.09 and 0.92 | 0.992 and 0.944 |
| C[C@]12CC[C@@H]3c4ccc(OC(=O)c5ccccc5)cc4CC[C@H]3[C@@H]1CC[C@@H]2O | 0.887 | 1.01 |
| Cc1ccc(F)c(NC(=O)Nc2ccc(-c3cccc4[nH]nc(N)c34)cc2)c1 | 1.3 | 1.05 |
| CN1CCN(C(c2ccccc2)c2ccccc2)CC1 | 0.813 and 0.808 | 0.84 and 0.755 |
| CC(C)OC(=O)C1=CN(C(=O)c2ccc(F)c(F)c2)CC(C)(C)c2c1[nH]c1ccccc21 | 1.23 | 1.24 |
| COC(=O)[C@@H]1CC2=CC(=O)CC[C@]2(C)[C@@]23O[C@@H]2C[C@@]2(C)[C@@H](CC[C@@]24CCC(=O)O4)[C@H]13 | 0.858 | 0.96 |

Reference: the supplement of paper PMC9334596
